Assay results as given in the supplement of paper PMC9446081.
Screen size: about 39,000 compounds; about 220 (0.56%) showed activity. The list shows a part of the results.

Tested on: Escherichia coli K-12 BW25113
Test: relative growth (OD600 normalised to plate interquartile mean) (fraction); higher = less growth inhibition, active = 0.2 or less
Details: 50 µM; LB; incubation time: overnight (16-24 h)
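Note: static incubation at 37 °C against the wild-type strain, values averaged over two biological replicates.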

Structure (SMILES)	relative growth
C[C@H]1CCCCO[C@@H](CN(C)C(=O)Cc2ccccc2)[C@@H](C)CN([C@@H](C)CO)C(=O)c2cc(NC(=O)Cc3ccccc3)ccc2O1	inactive: 1
COc1ccc(S(=O)(=O)Nc2ccc3c(c2)C(=O)N([C@H](C)CO)C[C@H](C)[C@@H](CN(C)C(=O)Nc2cccc4ccccc24)OCCCC[C@H](C)O3)cc1	inactive: 1
C[C@@H]1CN([C@H](C)CO)S(=O)(=O)c2ccc(-c3cncnc3)cc2O[C@H]1CN(C)C(=O)CN(C)C	inactive: 1.01
CCCCN1CCCCC1C(=O)Nc1c(C)cccc1C.Cl (centres undefined)	inactive: 1.09
COCC#Cc1cnc2c(c1)C(=O)N([C@@H](C)CO)C[C@H](C)[C@H](CN(C)C(=O)CN1CCOCC1)O2	inactive: 0.995
COc1ccc(COCC23Oc4ccccc4[C@H]([C@H]2COC(=O)c2ccccc2)n2c(c4ccccc4c(-c4ccccc4)c2=O)N3C)cc1	inactive: 1.03
C[C@H](CO)N1C[C@H](C)[C@H](CN(C)CC2CCCCC2)Oc2ccc(NC(=O)CCN3CCOCC3)cc2C1=O	inactive: 0.948
N#C[C@H](N)c1ccc(Cl)cc1	inactive: 0.965
COc1ccc(NC(=O)N(C)C[C@H]2OCCCC[C@H](C)Oc3ccc(NC(=O)c4ccncc4)cc3C(=O)N([C@@H](C)CO)C[C@H]2C)cc1	inactive: 1.04
C[C@H]1CN([C@@H](C)CO)C(=O)Cc2cc(NS(=O)(=O)c3ccc(F)cc3)ccc2O[C@H]1CN(C)S(=O)(=O)c1cccs1	inactive: 1
C[C@@H]1CN([C@@H](C)CO)C(=O)c2cc(-c3ccc(C(=O)N(C)C)cc3)cnc2O[C@@H]1CN(C)C(=O)C1CC1	inactive: 1.01
Cc1noc(C)c1NC(=O)Nc1ccc2c(c1)C(=O)N([C@@H](C)CO)C[C@@H](C)[C@@H](CN(C)C(=O)Nc1ccc(C(F)(F)F)cc1)OCCCC[C@@H](C)O2	inactive: 1.05
CC(C)NC(=O)N(C)C[C@@H]1Oc2ccc(NS(=O)(=O)c3ccc(F)cc3)cc2C(=O)N([C@@H](C)CO)C[C@H]1C	inactive: 1.01
Cc1ccc(S(=O)(=O)Nc2ccc3c(c2)C(=O)N([C@@H](C)CO)C[C@H](C)[C@@H](CN(C)CC2CCCCC2)OCCCC[C@H](C)O3)cc1	inactive: 0.965
C[C@@H]1CN([C@@H](C)CO)C(=O)c2cc(NC(=O)Nc3ccc(C(F)(F)F)cc3)ccc2O[C@H]1CN(C)Cc1ccccc1	inactive: 0.921
C[C@H]1CN([C@@H](C)CO)C(=O)c2cc(NS(=O)(=O)c3cn(C)cn3)ccc2O[C@H]1CN(C)Cc1ccc(C(=O)Nc2ccccc2N)cc1	inactive: 1.04
C[C@@H]1CN([C@H](C)CO)C(=O)c2cc(NS(=O)(=O)c3cn(C)cn3)ccc2O[C@@H](C)CCCCO[C@@H]1CN(C)S(=O)(=O)c1cn(C)cn1	inactive: 0.991
O=C([O-])C(O)C(O)C(O)C(O)CO.[Na+] (centres undefined)	inactive: 0.889
COc1ccc(S(=O)(=O)N(C)C[C@H]2Oc3c(NC(=O)Nc4cccc5ccccc45)cccc3C(=O)N([C@@H](C)CO)C[C@@H]2C)cc1	inactive: 1.04
C[C@@H]1CN([C@@H](C)CO)C(=O)c2cc(NC(=O)NC3CCCCC3)ccc2O[C@@H]1CN(C)S(=O)(=O)c1cn(C)cn1	inactive: 0.993

Structure (SMILES)	relative growth
CCCN(C)C[C@H]1Oc2cc(C#Cc3ccc(OC)cc3)ccc2S(=O)(=O)N([C@H](C)CO)C[C@H]1C	inactive: 0.984
C[C@H](CO)N1C[C@H](C)[C@@H](CN(C)Cc2ccccc2C(F)(F)F)OCc2ccccc2-c2c(n(C)c3ccccc23)C1=O	inactive: 1
C[C@H]1CN([C@@H](C)CO)C(=O)c2cc(NS(=O)(=O)c3ccccc3)ccc2O[C@@H]1CN(C)S(=O)(=O)c1cn(C)cn1	inactive: 1.01
Cc1noc(C)c1S(=O)(=O)N(C)C[C@@H]1OCCCC[C@H](C)Oc2ccc(N(C)C)cc2C(=O)N([C@H](C)CO)C[C@H]1C	inactive: 0.985
COc1ccc(S(=O)(=O)N2C[C@H](O)COC[C@@H]3O[C@@H](CC(=O)NCc4ccc(Cl)c(Cl)c4)CC[C@H]32)cc1	inactive: 0.981
C[C@@H]1CN([C@H](C)CO)C(=O)c2cccc(NS(C)(=O)=O)c2O[C@H]1CN(C)Cc1ccc(C(F)(F)F)cc1	inactive: 0.973
Cc1noc(C)c1S(=O)(=O)N(C)C[C@H]1Oc2c(NS(=O)(=O)c3cn(C)cn3)cccc2C(=O)N([C@@H](C)CO)C[C@H]1C	inactive: 1.02
C[C@H]1CN([C@@H](C)CO)C(=O)c2cc(NS(=O)(=O)c3ccc(Cl)cc3)ccc2O[C@H]1CN(C)Cc1ccc(-c2ccccc2)cc1	inactive: 0.98
C[C@H](CO)N1C[C@H](C)[C@@H](CN(C)C(=O)Nc2ccc3c(c2)OCO3)Oc2ccc(NS(=O)(=O)c3cn(C)cn3)cc2C1=O	inactive: 0.921
C[C@@H]1CN([C@@H](C)CO)C(=O)c2cc(NC(=O)Cn3cnnn3)ccc2O[C@H]1CN(C)Cc1ccc2c(c1)OCO2	inactive: 0.996
O=CN[C@H](Cc1ccccc1)C(=O)O	inactive: 1
Cc1noc(C)c1NC(=O)Nc1ccc2c(c1)C(=O)N([C@@H](C)CO)C[C@H](C)[C@H](CN(C)Cc1ccc(Cl)c(Cl)c1)OCCCC[C@@H](C)O2	inactive: 1.01
C[C@@H]1CN([C@@H](C)CO)S(=O)(=O)c2ccc(Br)cc2O[C@H]1CN(C)Cc1ccc(-c2ccccc2)cc1	inactive: 1.02
Cc1cnc(C(=O)N2C[C@@H]3COC[C@@]3(CNS(C)(=O)=O)C2)cn1	inactive: 1
C[C@H]1CN([C@@H](C)CO)C(=O)c2cccc(NC(=O)Nc3ccc(C(F)(F)F)cc3)c2O[C@@H]1CN(C)Cc1ccc(Oc2ccccc2)cc1	inactive: 0.981
O=C(CCCCCCC(=O)N/N=C/c1cc(I)cc(I)c1O)NO	inactive: 0.835
CC(=O)OCN1CCN(COC(C)=O)C1=O	inactive: 1
COc1ccc(N2CCN(c3nc(NCCO)nc(N4CCOCC4)n3)CC2)cc1	inactive: 0.994
CC(C)NC(=O)Nc1ccc2c(c1)CC(=O)N([C@H](C)CO)C[C@H](C)[C@H](CN(C)Cc1ccc(-c3ccccc3)cc1)O2	inactive: 0.985
O=C(C[C@@H]1C[C@H]2c3cc(NC(=O)Nc4ccccc4F)ccc3O[C@H]2[C@@H](CO)O1)NCc1ccc(Oc2ccccc2)cc1	inactive: 1.01

Structure (SMILES)	relative growth
C[C@H](CO)N1C[C@H](C)[C@H](CN(C)S(=O)(=O)c2cccs2)Oc2ccc(NS(=O)(=O)c3ccc(F)cc3)cc2C1=O	inactive: 1.01
C[C@H]1CN([C@@H](C)CO)C(=O)c2cccc(NS(=O)(=O)c3ccc(F)cc3)c2O[C@@H]1CN(C)S(=O)(=O)c1cn(C)cn1	inactive: 1.01
Cn1ncc2c(=O)nc[nH]c21	inactive: 0.962
CC(C)NC(=O)Nc1ccc2c(c1)C(=O)N([C@H](C)CO)C[C@H](C)[C@H](CN(C)Cc1ccc(C(=O)Nc3ccccc3N)cc1)OCCCC[C@@H](C)O2	inactive: 0.97
C[C@H]1CN([C@@H](C)CO)C(=O)c2cccc(NC(=O)c3ccc(-c4nccs4)cc3)c2O[C@H]1CN(C)Cc1ccc(Oc2ccccc2)cc1	inactive: 1
CO[C@@H]1CN(C)C(=O)c2ccc(NS(=O)(=O)c3ccccc3C)cc2OC[C@H](C)N(S(C)(=O)=O)C[C@H]1C	inactive: 1
C[C@@H]1CN([C@@H](C)CO)S(=O)(=O)c2ccc(-c3ccncc3)cc2O[C@@H]1CN(C)S(=O)(=O)c1ccccc1F	inactive: 0.997
C[C@@H]1CN([C@H](C)CO)C(=O)c2cc(NS(=O)(=O)c3ccc(Cl)cc3)ccc2O[C@@H](C)CCCCO[C@@H]1CN(C)C(=O)c1ccccc1	inactive: 1.01
COc1ccc(C#Cc2ccc3c(c2)[C@]2(C(=O)N3)[C@H](C(N)=O)[C@H]3C(=O)O[C@H](c4ccccc4)[C@H](c4ccccc4)N3[C@@H]2c2ccc(OCCO)cc2)cc1	inactive: 1.05
C[C@@H]1CN([C@@H](C)CO)C(=O)c2cc(NC(=O)Nc3ccccc3)ccc2O[C@@H](C)CCCCO[C@@H]1CN(C)C(=O)Cc1ccccc1	inactive: 0.999
Cc1ccc(S(=O)(=O)N(C)C[C@H]2Oc3ncc(C#CC4(O)CCCC4)cc3C(=O)N([C@@H](C)CO)C[C@H]2C)cc1	inactive: 1.01
COCCNC(=O)C[C@H]1C[C@H]2c3cc(NC(=O)CN(C)C)ccc3O[C@H]2[C@@H](CO)O1	inactive: 1.02
C[C@@H]1CN([C@@H](C)CO)C(=O)c2cc(-c3cccnc3)cnc2O[C@@H]1CN(C)Cc1ccc(-c2ccccc2)cc1	inactive: 1.01
COc1ccncc1-c1ccccc1CN(C(=O)c1ccc(-c2ccc(C#N)cc2)o1)c1ccc(N2CCNCC2)cc1	inactive: 0.975
Cc1noc(C)c1S(=O)(=O)Nc1ccc2c(c1)C(=O)N([C@H](C)CO)C[C@H](C)[C@@H](CN(C)Cc1ccc(C(=O)Nc3ccccc3N)cc1)OCCCC[C@@H](C)O2	inactive: 1.01
C[C@@H]1CN([C@H](C)CO)C(=O)c2cccc(NC(=O)c3ccncc3)c2O[C@H]1CN(C)C(=O)Nc1ccc2c(c1)OCO2	inactive: 0.987
COc1ccc(NC(=O)Nc2ccc3c(c2)C(=O)N([C@H](C)CO)C[C@H](C)[C@H](CN(C)C(=O)c2ccccc2)OCCCC[C@H](C)O3)cc1	inactive: 1.03
COc1ccc2c(c1)OCC(Cc1ccc(OC)c(OC)c1)C2=O (centres undefined)	inactive: 1.11
C[C@H](CO)N1C[C@H](C)[C@H](CN(C)C(=O)NC2CCCCC2)Oc2ccc(NC(=O)CCCN(C)C)cc2C1=O	inactive: 1
